Results as given in PubChem BioAssay AID1634 (National Center for Advancing Translational Sciences (NCATS), 2009).
Screen size: about 260,000 compounds; about 150 (0.058%) were called active. The shares of active, inactive and inconclusive entries below differ from those in the screen. Calls come from the whole dose curve; as a rule, active = well fitted inhibition curve with a large enough effect; inconclusive = small, poorly fitted or top-dose-only effect; inactive = no such curve, though single readings can be large or run the other way. No potency is given beside an inconclusive call; the fits are too rough.

These compounds were tested against Pyruvate kinase PKM (Homo sapiens) (UniProt P14618) (assay: qHTS Assay for Inhibitors of Human Muscle isoform 2 Pyruvate Kinase). Conditions: purified PKM2, ATP generation, Kinase-Glo luminescence; series mostly up to 57.5 µM.
Sequence of UniProt P14618 (P14618 whole entry, looked up, canonical isoform): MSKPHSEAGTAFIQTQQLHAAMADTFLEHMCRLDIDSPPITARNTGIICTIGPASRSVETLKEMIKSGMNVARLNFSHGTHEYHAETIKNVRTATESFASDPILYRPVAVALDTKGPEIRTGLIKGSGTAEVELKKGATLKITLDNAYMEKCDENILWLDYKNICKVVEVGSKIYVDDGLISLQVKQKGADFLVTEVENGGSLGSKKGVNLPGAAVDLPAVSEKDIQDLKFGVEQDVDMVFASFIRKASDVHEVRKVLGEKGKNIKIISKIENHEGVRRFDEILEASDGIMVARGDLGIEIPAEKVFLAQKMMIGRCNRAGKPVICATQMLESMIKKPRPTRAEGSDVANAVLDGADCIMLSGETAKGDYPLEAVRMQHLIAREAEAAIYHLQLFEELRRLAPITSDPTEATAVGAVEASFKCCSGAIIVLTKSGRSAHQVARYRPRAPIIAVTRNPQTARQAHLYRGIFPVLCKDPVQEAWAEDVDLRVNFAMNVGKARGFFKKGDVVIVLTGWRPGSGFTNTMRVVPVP
Summary of the method: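 Enzyme run at intermediate activity with final 0.1 mM ADP, 0.5 mM PEP (50 mM imidazole pH7.2, 50 mM KCl, 7 mM MgCl2), incubated 1 h at r.t. ATP formed read by Kinase-Glo luminescence, normalized to no-enzyme (full inhibition) and uninhibited wells.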
Note: nearly all actives have a fitted effect of over 60% in size.
Potency is the fitted concentration of half-maximal effect; tags give direction and shape of the fitted curve.

SMILES | Potency
O=C(CSc1ncccn1)NCc1ccc(Cl)cc1 | inconclusive [falling, single point]
Cc1cccc(N2CCN(C(=O)c3c(Cl)cnn3C)CC2)c1C | inactive
CC[n+]1ccc(C[n+]2ccccc2)c2ccccc21 | inconclusive [falling, single point]
CCOc1cc(/C=C2\C(=O)N(CCc3ccc(OC)c(OC)c3)C(C)=C2C(=O)OC)ccc1O | inconclusive [falling, single point]
O=C(NCCOC(=O)c1ccc(C(=O)OCCNC(=O)c2cccnc2)s1)c1cccnc1 | inactive
COc1cc2cc(C#N)c(SCC(=O)Nc3cc(C)on3)nc2cc1OC | inactive
S=c1[nH]c2cc(Cl)c3cccnc3c2o1 | inconclusive [falling, partial curve]
CN(C)[C@@H]1CCC[C@@H]1OC(=O)C(c1ccccc1)c1ccccc1 | inconclusive [falling, partial curve]
Cc1cc(NC(=O)CCCn2nc([N+](=O)[O-])c(Cl)c2C)no1 | inconclusive [falling, single point]
CC1CCCN(C(=O)C2c3ccccc3C(=O)N3CCc4ccccc4C23)C1 (stereo not drawn) | inconclusive [falling, single point]
CC(C)c1nc2sc(C(=O)O)c(N)c2c2c1CCCC2 | inactive
O=C(/C=C/c1ccccc1)Nc1cccc(S(=O)(=O)Nc2ccccc2F)c1 | inconclusive [falling, single point]
O=Nc1ccc(NOC(=O)c2ccccc2)cc1 | inconclusive [falling, partial curve]
COc1ccc(-c2csc(Cc3nc(O)cs3)n2)cc1 | inactive
COc1cccc(/C=C/C(=O)OCC(=O)NCc2ccc(Cl)cc2)c1 | inconclusive [falling, single point]
COc1cc(/C=C/C(=O)CC(=O)/C=C/c2ccc(O)c(OC)c2)ccc1O | inactive
COC(=O)c1nn(-c2ccc3c(c2)CCN3C(C)=O)cc1O | inconclusive [falling, single point]
CCc1nnc(NC(=O)CSc2nc3c(c(=O)n2-c2ccccc2OC)SCC3)s1 | inactive
COc1ccc(C(=O)NC(=O)Nc2cc(C)ccn2)cc1 | inconclusive [falling, partial curve]
Cc1ccc2oc3nc(C)c(C(=O)O)cc3c(=O)c2c1 | inconclusive [falling, single point]
Nc1nc(CSc2nc3ccccc3s2)nc(N2CCOCC2)n1 | inconclusive [falling, single point]
CN(C)/C=C1\C=C(c2ccccc2)OC1=O | inactive
Cc1ccc(NC(=O)c2ccoc2C)cc1C | inconclusive [falling, partial curve]
O=C(Nc1ccc(Br)c2cccnc12)c1ccc(Cn2cc([N+](=O)[O-])cn2)o1 | inactive

SMILES | Potency
O=C(NC1CCCC1)c1sc(=S)n2c1[nH]c(=O)c1ccccc12 | inconclusive [falling, single point]
COc1cccc(C(=O)Nc2ccc(N3CCCC3)cc2)c1 | inconclusive [falling, partial curve]
CCOC(=O)c1c(NC(=O)c2ccno2)c2cc([N+](=O)[O-])ccc2n1C | inconclusive [falling, single point]
Cc1cc(-c2csc(NC(=O)c3ccc(=O)[nH]c3)n2)c(C)n1Cc1ccco1 | inactive
CCOC(=O)C1(CCOc2ccccc2)CCN(C(=O)c2ccc(-n3cccn3)cc2)CC1 | inactive
Nc1nnc(SCC(=O)NC2CCCc3ccccc32)s1 (stereo not drawn) | inactive
O=C(/C=C/c1ccc2c(c1)OCO2)c1ccccn1 | inconclusive [falling, partial curve]
CCOC(=O)c1sc(S(C)(=O)=O)c2c1CCc1conc1-2 | inactive
COc1cc(C(C[N+](=O)[O-])c2c(C)cc3ccccn23)ccc1O (stereo not drawn) | inactive
COc1cccc(C2CC(=O)N3CN(c4cccc(Cl)c4C)CSC3=C2C#N)c1OC (stereo not drawn) | inconclusive [falling, single point]
CN(C)c1ccc(-c2nc3ccccn3c2/N=C/c2ccc(Br)cc2)cc1 | inconclusive [falling, single point]
COCC(=O)OCC(=O)Nc1ccc(Cl)cc1[N+](=O)[O-] | inactive
O=C(Nc1nc2cc3c(cc2s1)OCCO3)c1ccco1 | inconclusive [falling, partial curve]
COC(=O)c1sc(NC(=O)c2cc(-c3ccccc3)nc3ccccc23)c(C#N)c1C | inconclusive [falling, single point]
C/C(=N\NC(=O)c1n[nH]c2c1CCC2)c1ccco1 | inconclusive [falling, partial curve]
CCOn1c(=O)c(=O)n(O)c2ccccc21 | inconclusive [falling, single point]
CCc1nnc(NS(=O)(=O)c2ccc(N=Cc3c(C)[nH]n(-c4ccc(C)cc4)c3=O)cc2)s1 | inconclusive [falling, partial curve]
c1ccc(-c2cn3nc4c(nc3n2)CCCC4)cc1 | inconclusive [falling, partial curve]
O=c1c2ccccc2cnn1CCOc1ccccc1 | inconclusive [falling, partial curve]
CCC(C)Sc1nnc(Cc2cc(=O)[nH]c(=O)[nH]2)n1-c1ccc(OC)cc1 (stereo not drawn) | inconclusive [falling, single point]
CC(C)NC(=O)CCCn1c(=S)[nH]c2cc3c(cc2c1=O)OCO3 | inactive
O=C(O)CCCNC(=O)/C(=C\c1ccccc1F)NC(=O)c1ccccc1 | inconclusive [falling, single point]
Cc1ccc(-c2nc3c(c(=O)[nH]c(=O)n3Cc3ccccc3)n2C)o1 | inactive
COc1ccc(NC(=O)C=C(C)C)cc1Cl | inconclusive [falling, single point]
